The other results are listed elsewhere or left out.

Here are results for 27 molecules from the antibiotic and cytotoxicity screens of Wong et al. (2023).

In experiment [1] the test system is HSkMC (human skeletal muscle cells). The experiment is described as follows: cytotoxicity call (relative viability < 0.9). Conditions: 10 µM.
For experiment [2], the system named is HepG2. The experiment is described as follows: cytotoxicity call (relative viability < 0.9). Conditions: 10 µM.
In experiment [3] the test system is S. aureus RN4220. The experiment is described as follows: growth inhibition call (relative growth <= 0.2). Conditions: 50 µM.

Turning to `Cc1ccc(S(=O)(=O)Nc2ccc3c(c2)C(=O)N([C@H](C)CO)C[C@@H](C)[C@H](CN(C)C(=O)NC(C)C)O3)cc1`, the cytotoxicity call in experiment [1] and in experiment [2] was “inactive” in each case. Also, the growth inhibition call in experiment [3] was “inactive”.
Regarding `C[C@@H]1CN([C@H](C)CO)C(=O)c2cc(NC(=O)Cc3ccccc3)ccc2O[C@@H](C)CCCCO[C@@H]1CN(C)S(=O)(=O)c1ccc(Cl)cc1`, the cytotoxicity call in experiment [1] and in experiment [2] was “inactive” each time. Besides, the growth inhibition call in experiment [3] is “inactive”.
As to `C[C@@H]1CN([C@@H](C)CO)C(=O)Cc2cc(NC(=O)Cn3cnnn3)ccc2O[C@H]1CN(C)Cc1ccccc1`, the cytotoxicity call in experiment [1] and in experiment [2] was “inactive” throughout. Moreover, in experiment [3], the growth inhibition call is “inactive”.
Turning to `C[C@@H]1CN([C@@H](C)CO)C(=O)c2cc(C#CC3(O)CCCC3)cnc2O[C@@H]1CN(C)S(C)(=O)=O`, the cytotoxicity call in experiment [1] and in experiment [2] was “inactive” in each case. Besides, in experiment [3], the growth inhibition call is “inactive”.
Turning to `C[C@H]1CCCCO[C@@H](CN(C)C)[C@@H](C)CN([C@@H](C)CO)C(=O)c2cc(NC(=O)Nc3ccc(C(F)(F)F)cc3)ccc2O1`, in experiment [1], the cytotoxicity call was “inactive”. Also, in experiment [2], the cytotoxicity call is “active”. Moreover, the growth inhibition call in experiment [3] is “inactive”.
Turning to `COc1ccc(NC(=O)N2C[C@H](O)COC[C@H]3O[C@H](CC(=O)NC4Cc5ccccc5C4)CC[C@@H]32)cc1`, the cytotoxicity call in experiment [1] and in experiment [2] was “inactive” throughout. In experiment [3], the growth inhibition call was “inactive”.
With `Cc1noc(C)c1S(=O)(=O)Nc1ccc2c(c1)C(=O)N([C@@H](C)CO)C[C@H](C)[C@@H](CN(C)CC1CCCCC1)OCCCC[C@H](C)O2`, the cytotoxicity call in experiment [1] and in experiment [2] was “inactive” throughout. Further, the growth inhibition call in experiment [3] was “inactive”.
Take `C[C@@H]1CN([C@H](C)CO)C(=O)c2cccc(NC(=O)c3ccncc3)c2O[C@@H]1CN(C)S(=O)(=O)c1cccs1`: the cytotoxicity call in experiment [1] was “inactive”. The cytotoxicity call in experiment [2] is “active”. The growth inhibition call in experiment [3] is “inactive”.
As for `CC(C)(C)[S@](=O)N1Cc2cc(C(=O)NCCN3CCCCC3)nc(-c3cccc(-c4cccc(C#N)c4)c3)c2[C@@H]1CCO`, the cytotoxicity call in experiment [1] and in experiment [2] was “inactive” each time. In addition, the growth inhibition call in experiment [3] was “inactive”.
As for `O=C(N/N=C/c1ccc(B(O)O)cc1)c1ccccc1O`, the cytotoxicity call in experiment [1] and in experiment [2] was “inactive” in each case. In addition, the growth inhibition call in experiment [3] was “inactive”.
Take `COc1ccccc1NC(=O)Nc1ccc2c(c1)C(=O)N(C)C[C@@H](OC)[C@H](C)CN(Cc1ccccc1Cl)[C@H](C)CO2`: the cytotoxicity call in experiment [1] and in experiment [2] was “inactive” in each case. In addition, in experiment [3], the growth inhibition call was “inactive”.
Turning to `Cc1cc(C(=O)Nc2cccc3c2O[C@H](CN(C)S(=O)(=O)c2cn(C)cn2)[C@H](C)CN([C@@H](C)CO)C3=O)n(C)n1`, the cytotoxicity call in experiment [1] and in experiment [2] was “inactive” in each case. In addition, the growth inhibition call in experiment [3] was “inactive”.
In the case of `C[C@@H]1NC(=O)[C@@]23C(=O)N[C@@H](Cc4ccccc4)[C@@H]2[C@H](C)[C@@]2(C)O[C@H]2[C@H]3/C=C/C/C=C\CNC(=O)[C@@H]2CCCN2C1=O`, the cytotoxicity call in experiment [1] and in experiment [2] was “inactive” in each case. Besides, the growth inhibition call in experiment [3] is “inactive”.
Regarding `COC(=O)[C@@H]1C(=O)NC[C@H]1c1cccnc1`, the cytotoxicity call in experiment [1] and in experiment [2] was “inactive” each time. The growth inhibition call in experiment [3] is “inactive”.
Turning to `Cc1ccc(S(=O)(=O)Nc2ccc3c(c2)C(=O)N([C@@H](C)CO)C[C@H](C)[C@@H](CN(C)S(=O)(=O)c2ccc(F)cc2)OCCCC[C@@H](C)O3)cc1`, the cytotoxicity call in experiment [1] and in experiment [2] was “inactive” each time. Moreover, the growth inhibition call in experiment [3] is “inactive”.
With `COc1ccc(NC(=O)Nc2ccc3c(c2)C(=O)N([C@@H](C)CO)C[C@H](C)[C@H](CN(C)C(=O)NC2CCCCC2)OCCCC[C@H](C)O3)cc1`, the cytotoxicity call in experiment [1] and in experiment [2] was “inactive” each time. In addition, the growth inhibition call in experiment [3] is “inactive”.
As to `CC(C)NC(=O)Nc1ccc2c(c1)C(=O)N([C@H](C)CO)C[C@@H](C)[C@@H](CN(C)C(=O)Nc1ccc3c(c1)OCO3)O2`, the cytotoxicity call in experiment [1] and in experiment [2] was “inactive” each time. Also, in experiment [3], the growth inhibition call is “inactive”.
On to `COc1ccc(NC(=O)Nc2ccc3c(c2)C(=O)N([C@@H](C)CO)C[C@@H](C)[C@@H](CN(C)Cc2ccccc2)OCCCC[C@@H](C)O3)cc1`, for which the cytotoxicity call in experiment [1] is “inactive”. In experiment [2], the cytotoxicity call is “active”. Moreover, the growth inhibition call in experiment [3] was “inactive”.
In the case of `Cc1ccccc1-c1ccc2c(c1)O[C@H](CN(C)C(=O)Nc1ccc(C(F)(F)F)cc1)[C@H](C)CN([C@@H](C)CO)S2(=O)=O`, in experiment [1], the cytotoxicity call is “inactive”. Besides, the cytotoxicity call in experiment [2] was “active”. The growth inhibition call in experiment [3] is “inactive”.
Take `C[C@H]1CN([C@@H](C)CO)C(=O)c2cc(NC(=O)CCCN(C)C)ccc2O[C@H]1CN(C)C(=O)Nc1ccc2c(c1)OCO2`: the cytotoxicity call in experiment [1] and in experiment [2] was “inactive” each time. For the same molecule, the growth inhibition call in experiment [3] was “inactive”.
Regarding `Cn1cnc(S(=O)(=O)N2C[C@H](O)COC[C@@H]3O[C@@H](CC(=O)NCc4ccc(F)cc4)CC[C@H]32)c1`, the cytotoxicity call in experiment [1] and in experiment [2] was “inactive” throughout. The growth inhibition call in experiment [3] is “inactive”.
On to `CNCCCC1c2ccccc2C=Cc2ccccc21.Cl`, for which the cytotoxicity call in experiment [1] was “inactive”. Also, the cytotoxicity call in experiment [2] was “active”. Moreover, in experiment [3], the growth inhibition call is “inactive”.
For `C[C@@H]1CN([C@@H](C)CO)C(=O)c2cc(NC(=O)C3CCCCC3)ccc2O[C@H]1CN(C)C(=O)Nc1ccc(C(F)(F)F)cc1`, the cytotoxicity call in experiment [1] and in experiment [2] was “inactive” in each case. In addition, the growth inhibition call in experiment [3] is “inactive”.
Consider `C[C@@H]1CN([C@@H](C)CO)C(=O)Cc2cc(NS(=O)(=O)c3ccccc3)ccc2O[C@@H]1CN(C)Cc1ccc(Oc2ccccc2)cc1`, for which the cytotoxicity call in experiment [1] and in experiment [2] was “active” throughout. For the same molecule, the growth inhibition call in experiment [3] was “inactive”.
For the molecule `CC(=O)OCCNC(=O)c1cccnc1`, the cytotoxicity call in experiment [1] and in experiment [2] was “inactive” throughout. In experiment [3], the growth inhibition call is “inactive”.
For the molecule `C[C@@H]1CCCCO[C@H](CN(C)Cc2ccc(C(F)(F)F)cc2)[C@H](C)CN([C@@H](C)CO)C(=O)c2cc(NC(=O)Cc3ccccc3)ccc2O1`, the cytotoxicity call in experiment [1] and in experiment [2] was “inactive” each time. In experiment [3], the growth inhibition call was “inactive”.
Take `COc1ccc(S(=O)(=O)N(C)C[C@@H]2OCCCC[C@@H](C)Oc3ccc(NC(=O)CCC(F)(F)F)cc3C(=O)N([C@H](C)CO)C[C@@H]2C)cc1`: the cytotoxicity call in experiment [1] and in experiment [2] was “inactive” in each case. Besides, the growth inhibition call in experiment [3] is “inactive”.
